Results from PubChem BioAssay AID485281 (National Center for Advancing Translational Sciences (NCATS), 2010).
About 260 (0.074%) of roughly 350,000 compounds were called active. Inconclusive results, whose numbers are uncertain, are shown with a selection of clear calls. Calls come from the whole dose curve; as a rule, active = well fitted inhibition curve with a large enough effect; inconclusive = small, poorly fitted or top-dose-only effect; inactive = no such curve, though single readings can be large or run the other way. A potency beside an inconclusive call is a rough fit, not a confirmed value.
Note: nearly all actives have a fitted effect of over 20% in size.
Potency is the fitted concentration of half-maximal effect; tags give direction and shape of the fitted curve.

What follows are molecules tested against Ferritin light chain (Equus caballus) (UniProt P02791) (assay: qHTS Assay for Identification of Novel General Anesthetics). Details: apoferritin/1-aminoanthracene competitive binding, fluorescence; series mostly up to 77.5 µM.
Chain of UniProt P02791 (P02791 whole entry, looked up): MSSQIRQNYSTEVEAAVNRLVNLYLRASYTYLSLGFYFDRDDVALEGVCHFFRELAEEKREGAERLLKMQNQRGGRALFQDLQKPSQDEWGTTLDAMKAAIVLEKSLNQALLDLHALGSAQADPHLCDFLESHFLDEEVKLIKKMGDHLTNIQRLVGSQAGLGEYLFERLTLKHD
Procedure, shortened: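 Probe: 1-aminoanthracene (50% saturated, PBS). Protein: horse-spleen apoferritin, 10 uM. Incubation: 10 min, room temperature. Detection: 380 nm excitation, 535 nm emission. Analysis: normalized response, four-parameter Hill.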
`COc1ccc(C(=O)Nc2cccc(-c3ccc4nncn4n3)c2)cc1OC` was tested, and the Potency was “inactive”. With `CSc1cccc(CN2CCC(Oc3ccc(C(=O)N4CCCCC4)cc3)CC2)c1` the Potency was inconclusive: 31.6 µM [inhibitor, partial curve]. With `NC(=O)CC(NC(=O)Cc1ccc(Br)cc1)c1ccc(N2CCc3ccccc3C2)c([N+](=O)[O-])c1` (stereo not drawn) the Potency was inconclusive: 8.91 µM [inhibitor, partial curve]. For `Cc1nn(-c2ccc(F)cc2)c2sc(C(=O)OC3CCOC3=O)cc12` (stereo not drawn), the Potency was inconclusive: 35.5 µM [inhibitor, partial curve]. `COc1ccc(OC)c(-n2c(C)ccc2-c2ccc(S(C)(=O)=O)cc2)c1` was tested, and the Potency was “inactive”. `CC(C)c1ccc(Nc2c([N+](=O)[O-])c(=O)n(C)c3ccccc23)cc1` was tested, and the Potency was inconclusive: 39.8 µM [inhibitor, partial curve]. For `CCCCOC(=O)c1ccc(NC(=O)c2nn(C)cc2Br)cc1`, the Potency was inconclusive: 10 µM [inhibitor, partial curve]. In the case of `CCOc1ccc(C(=O)c2cn(CC(=O)Nc3ccc(Cl)cc3)c3cc4c(cc3c2=O)OCCO4)cc1`, the Potency is reported as inconclusive: 0.891 µM [inhibitor, full curve, poor fit]. In the case of `CCOc1cccc2c1OC(c1cc(OC)c(OC)c(OC)c1)N1N=C(c3ccc(C)o3)CC21` (stereo not drawn), the Potency is reported as inconclusive: 39.8 µM [inhibitor, single point]. For `O=C(Cn1nc(-c2cccc(Cl)c2)ccc1=O)Nc1ccccc1Br`, the Potency was inconclusive: 3.55 µM [inhibitor, full curve]. For `Cc1ccc(C)c(CN2C(=O)c3ccccc3S(=O)(=O)c3ccc(C(=O)N4CCCCC4)cc32)c1`, the Potency was inconclusive: 7.08 µM [inhibitor, full curve, poor fit]. With `CC(C)Cn1c(N)c(C(=O)COC(=O)CCc2nc3ccccc3s2)c(=O)n(C)c1=O` the Potency was inconclusive: 39.8 µM [inhibitor, single point]. With `Cc1ccc(SCC(=O)N2CCCC2)cc1` the Potency was inconclusive: 50.1 µM [inhibitor, single point]. For `O=C(Nc1ccc2nc3n(c(=O)c2c1)CCCCC3)C(=O)N1CCN(c2ccccc2F)CC1`, the Potency was “inactive”. For `Cc1cc(I)ccc1Nc1c(C(=O)NOCC2CC2)cc(F)c(F)c1F`, the Potency was “inactive”. For `Cc1ccc(/C=C2/SC(=S)N(CCC(=O)NCCCN3CCOCC3)C2=O)cc1`, the Potency was inconclusive: 17.8 µM [inhibitor, partial curve]. For `CC(C)CC(=O)Nc1c(C(=O)N2CCN(c3ccccc3)CC2)oc2ccccc12`, the Potency was inconclusive: 0.794 µM [inhibitor, full curve, poor fit]. In the case of `C=CCN1C(=O)C(O)(CC(=O)c2ccccc2)c2ccccc21` (stereo not drawn), the Potency is reported as inconclusive: 50.1 µM [inhibitor, single point]. For `O=c1c2cc3ccccc3n2cnn1Cc1ccccc1F`, the Potency was inconclusive: 20 µM [inhibitor, partial curve]. With `CCOc1ccccc1NC(=O)Cn1cc(C(=O)c2cccc(OC)c2)c(=O)c2ccc(C)nc21` the Potency was inconclusive: 50.1 µM [inhibitor, single point]. With `COc1ccc(NC(=O)Cn2c(SCc3cc(C)ccc3C)nc3ccncc32)c(OC)c1OC` the Potency was inconclusive: 17.8 µM [inhibitor, partial curve]. `Cc1ccc(OCc2ccc(C(=O)Nc3nccs3)o2)cc1C` was tested, and the Potency was inconclusive: 14.1 µM [inhibitor, partial curve]. With `CC(=O)c1ccc(OCC(O)CN2CCOCC2)cc1` (stereo not drawn) the Potency was “inactive”. With `CCN1CCN(c2nc3c(S(=O)(=O)c4ccc(Br)cc4)nnn3c3ccsc23)CC1` the Potency was “inactive”. With `CC1CCN(C(=O)C2CCCCN2S(=O)(=O)c2cccc([N+](=O)[O-])c2)CC1` (stereo not drawn) the Potency was inconclusive: 31.6 µM [inhibitor, partial curve]. For `CCOC(=O)C1Cn2c(nc3c(c2=O)C(C)(C)Cc2ccccc2-3)S1` (stereo not drawn), the Potency was inconclusive: 31.6 µM [inhibitor, single point]. In the case of `COc1cc(NC(=O)CCC(=O)OCCCC(F)(F)C(F)(F)F)nc(OC)n1`, the Potency is reported as inconclusive: 31.6 µM [inhibitor, partial curve]. For `Fc1ccc(-c2noc3ncnc(NCCc4ccccc4)c23)cc1`, the Potency was “inactive”. With `O=C(CSCc1cccc(Br)c1)N=Nc1c(O)[nH]c2ccccc12` the Potency was inconclusive: 35.5 µM [inhibitor, partial curve]. With `Cc1cccn2c(=O)c(/C=C(\C#N)c3nc4ccccc4[nH]3)c(Oc3ccc(C(C)(C)C)cc3)nc12` the Potency was inconclusive: 14.1 µM [inhibitor, partial curve]. In the case of `CCOc1ccc(-c2ccc(NS(=O)(=O)c3ccc(C)cc3)cc2)nn1`, the Potency is reported as inconclusive: 50.1 µM [inhibitor, single point]. In the case of `O=C1/C(=C/c2ccco2)CCC1C1CCCC1` (stereo not drawn), the Potency is reported as inconclusive: 25.1 µM [inhibitor, partial curve]. In the case of `Fc1ccc(-c2csc(N3CCSCC3)n2)cc1`, the Potency is reported as inconclusive: 31.6 µM [inhibitor, partial curve]. In the case of `Cc1ccc(C)c(N2CCN(CCCNC(=O)c3cnn(-c4ccccc4Cl)c3C3CCN(C(=O)OC(C)(C)C)CC3)CC2)c1`, the Potency is reported as inconclusive: 5.01 µM [inhibitor, single point]. With `CC(Nc1ccc(Cl)cc1)c1cc(Cl)ccc1O` (stereo not drawn) the Potency was inconclusive: 28.2 µM [inhibitor, single point]. With `CC1CCCCC1NC(=O)COC(=O)/C=C/c1ccc2c(c1)OCO2` (stereo not drawn) the Potency was inconclusive: 6.31 µM [inhibitor, full curve]. With `COC(=O)[C@H]1C[C@@H]1[C@H](N)c1ccccc1` the Potency was “inactive”. `CCOc1ccc(Sc2cc(C(=O)NC(C)c3ccccc3)c3ccccc3n2)cc1` (stereo not drawn) was tested, and the Potency was “inactive”. In the case of `Cc1ccc2cc(NC(=O)c3ccc(C(C)(C)C)cc3)ccc2n1`, the Potency is reported as “inactive”. For `CCc1nc(N)c(C#N)c(-c2cccnc2)c1C`, the Potency was “inactive”. For `O=C(CSc1nc(-c2ccccc2Cl)ns1)Nc1ccc2c(c1)OCO2`, the Potency was inconclusive: 28.2 µM [inhibitor, single point]. For `CCN(CC)CCNC(=O)c1ccc(Cn2c(SCc3ccccc3)nc3cccnc32)cc1`, the Potency was “inactive”. For `COc1cc(C)c(S(=O)(=O)n2c([N+](=O)[O-])cnc2C)cc1C`, the Potency was inconclusive: 44.7 µM [inhibitor, partial curve]. With `O=[N+]([O-])c1ccccc1/C=C\C=N\N1CCN(c2ccccc2)CC1` the Potency was inconclusive: 28.2 µM [inhibitor, partial curve]. For `O=C1CC(c2cc(Br)ccc2F)c2cc3c(cc2N1)CCC3` (stereo not drawn), the Potency was “inactive”. With `Cc1ccc(C(C)C)c(OCC(=O)NCC2(N(C)C)CCCCC2)c1` the Potency was “inactive”. For `COc1ccc(CCn2cc3c(c2-c2ccc(Br)cc2)c(=O)n(C)c(=O)n3C)cc1OC`, the Potency was “inactive”. In the case of `CCc1ccc(C(=O)c2cn(CC(=O)Nc3ccc4c(c3)OCO4)c3cc(OC)c(OC)cc3c2=O)cc1`, the Potency is reported as inconclusive: 2.51 µM [inhibitor, full curve]. In the case of `COc1ccc(C(=O)C/C(=C\C(=O)c2ccc(C)cc2)c2ccccc2)cc1`, the Potency is reported as inconclusive: 44.7 µM [inhibitor, partial curve]. `COc1cc(-c2cc(OC)c3c(C)oc(C)c3c(=O)c2)ccc1OC(=O)c1ccccc1Cl` was tested, and the Potency was inconclusive: 17.8 µM [inhibitor, partial curve]. With `COc1ccc(OC)c2sc(N3CCN(C(=O)C(C)(C)C)CC3)nc12` the Potency was “inactive”. `CCCCCCn1c(C(C)NC(=O)c2ccco2)nc2ccccc21` (stereo not drawn) was tested, and the Potency was inconclusive: 31.6 µM [inhibitor, partial curve]. `COC(=O)CCn1nnc(-c2ccc(C)cc2)n1` was tested, and the Potency was “inactive”. For `Cc1sc2ncn(Cc3ccccc3F)c(=O)c2c1C`, the Potency was inconclusive: 12.6 µM [inhibitor, partial curve]. For `Clc1ccc(Sc2cc(Cl)c(-c3ccccc3)nn2)cc1`, the Potency was “inactive”. In the case of `CC1CN(c2nc(N(C)c3ccccc3)nc(N)c2[N+](=O)[O-])CC(C)O1` (stereo not drawn), the Potency is reported as “inactive”. With `CCOC(=O)CNC(=O)C1c2ccccc2C(=O)N(c2ccc(OC)cc2)C1c1ccc(OC)cc1` (stereo not drawn) the Potency was inconclusive: 50.1 µM [inhibitor, single point]. In the case of `O=C(CSc1ccc(-c2ccccc2)nn1)c1cccs1`, the Potency is reported as inconclusive: 28.2 µM [inhibitor, partial curve]. In the case of `CCOC(=O)C1=C(CN2CCC(C)CC2)NC(=O)NC1c1ccc(F)cc1` (stereo not drawn), the Potency is reported as inconclusive: 15.8 µM [inhibitor, partial curve]. With `COc1cc(CNC(C)c2ccccc2)cc(Br)c1OCc1ccccc1` (stereo not drawn) the Potency was “inactive”. In the case of `CN1OC2C(=O)N(c3ccccc3)C(=O)C2C1c1ccc(F)cc1` (stereo not drawn), the Potency is reported as active: 31.6 µM. With `O=C(C/C=N\OCc1ccc([N+](=O)[O-])cc1)Nc1ccc(Br)cc1` the Potency was inconclusive: 15.8 µM [inhibitor, partial curve]. For `Cc1c(/N=C/c2ccco2)n(Cc2ccccc2)c2ccccc12`, the Potency was inconclusive: 35.5 µM [inhibitor, partial curve]. In the case of `CCOC(=O)NC1(Nc2ccc(C)cc2)Oc2ccccc2O1`, the Potency is reported as inconclusive: 35.5 µM [inhibitor, single point]. `CC(C)N1C(=O)N(c2cccc(Cl)c2)C(C)(O)CC1(C)C` (stereo not drawn) was tested, and the Potency was inconclusive: 31.6 µM [inhibitor, single point]. In the case of `O=C(OCCN=C1NS(=O)(=O)c2ccccc21)C1CC(=O)N(c2ccc3ccccc3c2)C1` (stereo not drawn), the Potency is reported as inconclusive: 25.1 µM [inhibitor, partial curve]. In the case of `Cc1ccc(S(=O)(=O)Nc2ccc3c(c2)CCCN3C(=O)c2cccs2)cc1`, the Potency is reported as inconclusive: 31.6 µM [inhibitor, partial curve]. For `Nc1cccnc1Sc1ccc(Cl)cc1`, the Potency was inconclusive: 28.2 µM [inhibitor, partial curve].
